Laboratory results from the supplement of paper PMC10369915.
The list shows a part of the results. Rule as the data show it: active = 3.2 or more and inactive = the rest. The signal is at background level for most entries.

B1: BTK_Y425_I429N (peptide)
chain: KWRGQYDVANK
B2: BRCA2_Y3009_T3013I (peptide)
chain: KRYRIYHLAIS
B3: BTD_Y536 (peptide)
chain: VTAALYGRLYE
B4: BTK_Y40_Y40C_YF (peptide)
chain: HKLSFCEFDFE
B5: BTK_Y334_Y334S (peptide)
chain: GVIRHSVVCST
B6: BTD_Y536_T532M_YF (peptide)
chain: VMAALYGRLFE
B7: BTK_Y361 (peptide)
chain: PELINYHQHNS
B8: BRDT_Y335 (peptide)
chain: EYKDAYKFAAD
B9: BRCA2_Y71_A75P (peptide)
chain: QRKPSYNQLPS
B10: BRDT_Y291_YF (peptide)
chain: KKHFSYAWPFF
B11: BRDT_Y291 (peptide)
chain: KKHFSYAWPFY
B12: BSCL2_Y213 (peptide)
chain: QLYGAYLRIHA
B13: BTK_Y40 (peptide)
chain: HKLSYYEYDFE
B14: BRDT_Y331_K336T (peptide)
chain: MDNQEYKDAYT
B15: BRCA2_Y57_K53R (peptide)
chain: HRNNNYEPNLF
B16: BRCA2_Y57 (peptide)
chain: HKNNNYEPNLF
B17: BRIP1_Y921 (peptide)
chain: YSTSPYLLEAA
B18: BRDT_Y335_K336T (peptide)
chain: EYKDAYTFAAD

Biological target: SHP2 C-SH2 domain E139D
Experiment: enrichment score (SH2-bound / input frequency) (ratio); bacterial display of known human phosphotyrosine sites (pTyr-Var adds point mutants) read by sequencing; higher = stronger binding; tyrosines were phosphorylated by kinases first
Details: peptide library: pTyr-Var
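Also: displayed peptides selected on beads carrying the immobilized SH2 domain, with library peptides lacking any tyrosine serving as negative controls.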

Enrichment score, inactive:
B1 1.45
B2 2.17
B3 1.4
B4 0.799
B5 0.91
B7 1.38
B8 0.861
B9 0.845
B12 2.49
B13 1.41
B14 0.421
B15 0.681
B16 0.499
B17 0.802
B18 0.745

Enrichment score, active:
B6 3.42
B10 4.91
B11 5.29

Biological target: SHP2 C-SH2 domain wild-type
Experiment: as above
Details: peptide library: pTyr-Var

Enrichment score, active:
B6 3.51
B10 3.79
B11 4.18

Enrichment score, inactive:
B1 1.13
B2 1.93
B3 1.37
B4 0.968
B5 0.869
B7 0.95
B8 0.893
B9 0.722
B12 2.65
B13 1.42
B14 0.452
B15 0.652
B16 0.774
B17 0.723
B18 0.552

Biological target: SHP2 N-SH2 domain L43F
Experiment: as above
Details: peptide library: pTyr-Var

Enrichment score, inactive:
B1 1.15
B2 2.03
B3 1.23
B4 0.714
B5 0.793
B7 1.03
B8 0.842
B9 0.743
B12 2.57
B13 2.01
B14 0.476
B15 0.939
B16 0.586
B17 0.648
B18 0.577

Enrichment score, active:
B6 3.33
B10 5.01
B11 4.37

Biological target: SHP2 N-SH2 domain T42A
Experiment: as above
Details: peptide library: pTyr-Var

Enrichment score, active:
B10 4.44
B11 4.26

Enrichment score, inactive:
B1 1.05
B2 1.91
B3 1.05
B4 0.729
B5 0.709
B6 2.87
B7 0.977
B8 0.83
B9 0.622
B12 2.46
B13 1.73
B14 0.418
B15 0.915
B16 0.544
B17 0.684
B18 0.64

Biological target: SHP2 N-SH2 domain T52S
Experiment: as above
Details: peptide library: pTyr-Var

Enrichment score, active:
B10 5.58
B11 4.04

Enrichment score, inactive:
B1 1.27
B2 2.2
B3 1.38
B4 0.802
B5 0.748
B6 3.12
B7 1.43
B8 0.494
B9 0.653
B12 2.77
B13 1.93
B14 0.329
B15 0.922
B16 0.747
B17 0.62
B18 0.615

Biological target: SHP2 N-SH2 domain wild-type
Experiment: as above
Details: peptide library: pTyr-Var

Enrichment score, active:
B6 3.49
B10 4.07
B11 4.23

Enrichment score, inactive:
B1 1.17
B2 1.84
B3 1.38
B4 0.741
B5 0.844
B7 1.36
B8 1.25
B9 0.86
B12 2.65
B13 1.78
B14 0.571
B15 0.962
B16 0.49
B17 0.711
B18 0.725
